The values below come from ChEMBL document CHEMBL4888484, “Replenishing the malaria drug discovery pipeline: Screening and hit evaluation of the MMV Hit Generation Library 1 (HGL1) against asexual blood stage Plasmodium falciparum ,using a nano luciferase reporter read-out” (2022).

The whole screen tested about 4,800 compounds, of which about 420 (8.8%) showed an effect of 50% or more. The list shows a part of the results.

The test relates to Plasmodium falciparum. The test can be described thus: Confirmatory screen in NF54 nanoGlo assay, in single point, at 2uM, 72h. It is filed as functional, Erythrocyte. As to conditions: timepoint 72 hour.
Consider `Cc1ccc(NC(=O)Cn2c(C)nc3c(-c4ccccn4)nsc3c2=O)c(C)c1`, for which the “% Inhibition” value is recorded as 0%. As for `Cc1csc(S(=O)(=O)N2CC[C@H](n3cccn3)C2)c1`, the figure is -4%; as for `CCn1nc(C(=O)N(C2CCCCC2)C2CC2)c2ccccc2c1=O`, -10%. Consider `COc1ccc(Br)c(C#N)c1C`, for which the “% Inhibition” value is given as 3%. With `CC(CC(=O)O)CC(=O)N1CC(C)CC(C)C1` (stereo not drawn), the “% Inhibition” value was determined as 6%. Consider `CCC1C(C(=O)NCCN(C)CCOC)CCN1C(=O)OC(C)(C)C` (stereo not drawn), for which the “% Inhibition” value is given as -7%. Turning to `COc1cccc(CNC(=O)Cn2c(=O)n(Cc3cccc(OC)c3)c(=O)c3sccc32)c1`, the “% Inhibition” value was 2%.

With `CCOc1cc(CNC2CCN(C(C)=O)CC2)ccc1OCc1c(F)cccc1Cl`, the “% Inhibition” value is on record as -7%. Turning to `COc1ccc(C2=Nc3ccc(S(=O)(=O)N4CCOCC4)cc3S(=O)(=O)N2)cc1`, the “% Inhibition” value was -10%. For the molecule `CCS(=O)(=O)Nc1ccc(Br)cc1Cl`, the “% Inhibition” value is listed as -5%.

For the molecule `O=C(Cn1c(=O)n(Cc2ccc3c(c2)OCO3)c(=O)c2sccc21)Nc1ccc(Cl)cc1F`, the “% Inhibition” value is listed as 13%. Consider `Cc1oc(-c2ccn[nH]2)cc1S(=O)(=O)Nc1cccc(Cl)c1`, for which the “% Inhibition” value was found to be 52%.

As for `Cc1cc(C(=O)N2CCC[C@H]2c2nc(C3CCOCC3)no2)n(C)n1`, the “% Inhibition” value was -2%. As for `Cc1nn(Cc2cccc(F)c2)c(C)c1NC(=O)c1cccc(COc2ccc(Br)cc2)c1`, the figure is 8%. To `CCc1nc(C(=O)[C@H](C#N)C(=O)Nc2cccc(C)c2)co1` belongs -10%; to `CCCC(C)(C)N(Cc1cccs1)Cc1nnc2n1CCOC2`, 1%.

Take `CCc1c(NC(=O)[C@@H](C)C2CC2)nnn1CCc1ccc(OC)cc1`: the “% Inhibition” value was -1%. On to `Cc1cnc(NC(=O)C(=O)N2CCC[C@H](n3cccn3)C2)s1`, for which the “% Inhibition” value was -4%.

Consider `Cc1cc(=O)c(CO)nn1CCCc1ccccc1`, for which the “% Inhibition” value is reported as -3%. As for `Cc1nc(C)c(CN2C(=O)C3CCCCC3C2=O)s1` (stereo not drawn), the figure is -2%; as for `CCc1cc(C(=O)N2CCC[C@H](C)C2)c2c(C3CC3)nn(-c3ccccc3)c2n1`, -8%; as for `CC1CCCN(c2nc(O)c3c(n2)NC(=O)CC3c2cccc(C(F)(F)F)c2)C1` (stereo not drawn), 1%. As for `O=C(OCC1OCC(n2cc(C(F)(F)F)c(=O)[nH]c2=O)O1)c1ccccc1` (stereo not drawn), the figure is -3%; as for `O=C(CCC(=O)N1CCCC1)NCc1ccc2c(c1)OCO2`, -16%; as for `COCc1ncc(C)n1CCNC(=O)c1cc(-c2cc(C)ccc2C)n[nH]1`, 6%. `Cc1cc(N2CCn3c(nc4ccccc43)C2)ccc1NC(=O)C1CCCCC1`: the “% Inhibition” value was determined as 10%. On to `Nc1c(Br)cc2oc(-c3ccc4ccccc4c3)nc2c1Br`, for which the “% Inhibition” value stood at 3%. Take `O=c1[nH]c2nc(N3CCCCC3)ncc2c(=O)n1Cc1ccco1`: the “% Inhibition” value is -15%.

For orientation: % Inhibition means the relative decrease from the control value, in per cent.
